# According to PubChem BioAssay AID504706 (National Center for Advancing Translational Sciences (NCATS), 2011):
# Hit rate of the full screen: of about 320,000 compounds, about 200 (0.062%) were called active. The inconclusive results got no clear call from the source; some entries with a clear call stand among them for comparison. Calls follow the shape of the dose curve; as a rule, active = well fitted activation curve with a large enough effect; inconclusive = small, poorly fitted or top-dose-only effect; inactive = no such curve, though single readings can be large or run the other way. Potencies of inconclusive entries are left out as doubtful fits.
# Assay: qHTS assay for re-activators of p53 using a Luc reporter; also: nearly all actives have a fitted effect of over 45% in size; as to activity change, positive = activation: % of control where 0% means no effect
# Conditions: H1299 p53-A138V BP100-luciferase reporter, luminescence, 24 h; series mostly up to 92.2 µM; activity change, positive = activation: at the top concentration
# Procedure, shortened: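 p53-null H1299 cells stably carrying temperature-sensitive p53-A138V and a BP100-luciferase reporter were pinned with compounds (4-point, 1:5 series) and held 24 hrs at 37 deg C. Luminescence was read 10 min after detection reagent.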
# Potency is read from the fitted curve at half-maximal effect; tags tell the direction and shape of the fitted curve.
SMILES,Potency,"activity change, positive = activation"
CN(C)C(=O)CCCc1nc(-c2ccc(Cl)cc2)no1,"inconclusive [activator, partial curve, poor fit]",
Cc1nn(-c2ccccc2)c(C)c1C(=O)OCC(=O)Nc1ccccc1C(F)(F)F,"inconclusive [activator, partial curve, poor fit]",
O=C1CC(c2ccco2)CC2=C1C(c1ccccc1)n1nc(C(F)(F)F)nc1N2 (stereo not drawn),,inactive: -16.2%
CC1CCCCN1C(=O)CSc1nnc(-c2cccs2)o1 (stereo not drawn),"inconclusive [activator, partial curve, poor fit]",
N/C(=N\OC(=O)c1ccccc1F)c1ccc([N+](=O)[O-])cc1,"inconclusive [activator, partial curve, poor fit]",
CN1C[C@@H]2C(c3ccccc3)C3(c4ccc(C#N)cc4)CC2(C3)[C@H]1c1ccccc1 (stereo partly drawn),,inactive: 11.8%
COc1ccc(C(=O)CC(Nc2ccc([N+](=O)[O-])cc2)c2ccc(OC)cc2)cc1 (stereo not drawn),,inactive: 0.365%
CC1(C)C(=O)Nc2ccccc2N1C(=O)CSc1nc(-c2ccccc2)cs1,"inconclusive [activator, full curve, poor fit]",
Cc1nn(Cc2ccccc2Cl)c(C)c1NC(=O)c1nc2ncccn2n1,"inconclusive [activator, single point]",
O=C(NCc1ccccn1)c1ccc(N2CCCC2=O)cc1,"inconclusive [activator, single point]",
COc1ccc(N2CCN(C(=O)c3ccccc3NS(=O)(=O)c3ccccc3)CC2)cc1,,inactive: 6.71%
CCOc1ccc(C2=Nn3cnnc3SC2)cc1,"inconclusive [activator, single point]",
CC(=O)c1ccc(N2CCN(c3ncccn3)CC2)cc1,"inconclusive [activator, partial curve, poor fit]",
O=C(COc1ccc(Cl)cc1Cl)OCC(=O)c1ccc[nH]1,"inconclusive [activator, single point]",
CC(=O)N(C)c1ccc(NC(=S)Nc2ccccc2)cc1,,inactive: 15.6%
CCOc1ccc(N)c(SSc2cc(OCC)ccc2N)c1,"inconclusive [activator, partial curve, poor fit]",
CNC(=S)N/N=C(\C)c1ccc(N2CCOCC2)cc1,"inconclusive [activator, full curve, poor fit]",
Cc1nn(-c2ccc(C(=O)O)cc2)c(N)c1-c1ccccc1,"inconclusive [activator, full curve, poor fit]",
CCCc1cc(=O)n2[nH]c(-c3ccccc3)cc2n1,"inconclusive [activator, partial curve, poor fit]",
N#C/C(=C\c1cccs1)C(=O)NCc1ccccc1,"inconclusive [activator, single point]",
Cc1nc2sc(C(N)=O)c(N)c2c(C)c1CC(=O)c1ccccc1,,inactive: -1.77%
CCCC(=O)Nc1sc2c(c1C#N)CCCC2,"inconclusive [activator, partial curve, poor fit]",
O=C(CSC(=S)N1CCSCC1)c1ccccc1,"inconclusive [activator, full curve]",

SMILES,Potency,"activity change, positive = activation"
CC(=O)c1ccc(NC(=O)c2cccs2)cc1,"inconclusive [activator, partial curve, poor fit]",
COc1ccc(C(=O)O)cc1NC(=S)NC(=O)/C=C/c1ccc(C(C)C)cc1,,inactive: 2.72%
Cn1cccc1/C=C1\Cc2ccccc2C1=O,"inconclusive [activator, partial curve, poor fit]",
Cc1nc2sc3c(=O)[nH]nnc3c2c(C)c1Br,,inactive: 1.4%
Cc1cc(OCCCC(=O)NC2=NCCS2)ccc1Cl,,inactive: -0.449%
O=C(c1cccc(NC2=NC3CS(=O)(=O)CC3S2)c1)N1CCN(c2ncccn2)CC1 (stereo not drawn),,inactive: 14%
COCCNC(=O)c1ccc(S(=O)(=O)N2CCCc3ccccc32)cc1,"inconclusive [activator, full curve, poor fit]",
CCOC(=O)N1CCN(C(=O)COc2ccc3c(c2)C(=O)CC(C)(C)O3)CC1,,inactive: -3.89%
COc1ccc(NC(=S)N/C(=N/S(=O)(=O)c2ccc(C)cc2)c2ccccc2)cc1,,inactive: 6.61%
Cc1ccccc1OCC(O)Cn1c(=N)n(Cc2ccccc2)c2ccccc21 (stereo not drawn),,inactive: -11%
Cc1nc2ncnn2c(C)c1CCC(=O)N1CCOCC1,"inconclusive [activator, partial curve]",
O=C(Nc1nccs1)c1ccc(-c2ccc(F)cc2)o1,,inactive: 18.4%
O=C(c1cccc(-c2nnc(-c3ccccc3)o2)c1)N1CCCCC1,"inconclusive [activator, partial curve, poor fit]",
CCn1nnc(NC(=O)c2cc3ccccc3o2)n1,"inconclusive [activator, partial curve, poor fit]",
Nc1nn(-c2ccccc2)c(N)c1N=Nc1ccccc1,"inconclusive [activator, partial curve, poor fit]",
Cc1ccc(S(=O)(=O)N2CCOCC2)cc1NC(=O)CN1CCC(Cc2ccccc2)CC1,"inconclusive [activator, single point]",
CCNc1oc(COc2cccc(C)c2)nc1C#N,"inconclusive [activator, partial curve, poor fit]",
COc1ccccc1NC(=O)CN1CCN(CC(=O)Nc2ccccc2Cl)CC1,,inactive: 10.4%
O=C(Cc1ccc(Cl)cc1)Nc1ncc([N+](=O)[O-])s1,"inconclusive [activator, full curve]",
CCNC(=O)c1ccc(CSc2nc3ccccc3s2)cc1,,inactive: 0.228%
COc1cc(NC(=O)CN2CCCCC2)c(C)cc1[N+](=O)[O-],"inconclusive [activator, full curve, poor fit]",
O=C(Nc1ccccc1C(F)(F)F)C1CC(=O)N(c2ccccc2F)C1 (stereo not drawn),"inconclusive [activator, single point]",
CCCN(C(=O)CSc1ncccn1)C1CCS(=O)(=O)C1 (stereo not drawn),,inactive: 4.73%

SMILES,Potency,"activity change, positive = activation"
O=c1cccccc1NN=C1CCCCC1,"inconclusive [activator, partial curve, poor fit]",
CC(=O)Nc1ccc(-n2nnnc2SCC(=O)Nc2cccc(NC(=O)c3ccco3)c2)cc1,"inconclusive [activator, single point]",
COc1cccc2c1C(=O)c1c(O)c3c(c(O)c1C2=O)C[C@@](O)(C(=O)CO)C[C@@H]3O[C@H]1C[C@H](N)[C@H](O)[C@H](C)O1,"inconclusive [activator, partial curve, poor fit]",
CC(=O)c1ccc(S(=O)(=O)N(C)CC(=O)Nc2ccc(C)cc2)cc1,"inconclusive [activator, single point]",
Cc1cc2nc(N3CCN(C(=O)c4ccco4)CC3)sc2cc1C,"inconclusive [activator, full curve, poor fit]",
CN(C)S(=O)(=O)Oc1cccc(C(=O)Nc2ccc(Cl)c(Cl)c2)c1,"inconclusive [activator, partial curve, poor fit]",
CN(C)c1cccc(C(=O)NCC(c2ccco2)N(C)C)c1 (stereo not drawn),"inconclusive [activator, partial curve, poor fit]",
N#Cc1ccccc1COC(=O)c1ccc2c(c1)OCO2,"inconclusive [activator, partial curve, poor fit]",
CCOC(=O)N1CCN(S(=O)(=O)c2cc([N+](=O)[O-])ccc2C)CC1,,inactive: 18.5%
COc1ccc(/C=C2\COc3ccccc3C2=O)cc1OC,"inconclusive [activator, partial curve, poor fit]",
CC(C)Cc1nc(Cl)c(C#N)c2c1CCCC2,,inactive: -8.83%
Cc1c(CCOC(=O)c2ccc(N3CCOCC3)c([N+](=O)[O-])c2)sc[n+]1CC#N,"inconclusive [activator, single point]",
Cc1cc(S(=O)(=O)NCc2ccccc2)ccc1OCC(=O)NCc1ccncc1,"inconclusive [activator, partial curve, poor fit]",
CCOc1ccc2nc(NC(=O)Cc3cccs3)sc2c1,"inconclusive [activator, partial curve, poor fit]",
Cc1cc(OCc2cc(C(=O)N(C)CC3CCOCC3)no2)cc(C)c1Cl,"inconclusive [activator, partial curve, poor fit]",
C=CC(C)(C)O[C@@H]1O[C@H](CO)[C@@H](O)[C@H](O)[C@H]1O,,inactive: 10.9%
CN(C)c1ccc(NC(=O)Nc2cccc(Cl)c2)cc1,"inconclusive [activator, partial curve, poor fit]",
Cc1cc(NC(=O)CSc2c3c(nc4ccccc24)CCC3)no1,"inconclusive [activator, partial curve, poor fit]",
C=C(C)C1CC=C(C)/C(=N\NC(=S)Nc2ccc(C)cc2)C1 (stereo not drawn),"inconclusive [activator, partial curve]",
Cc1cc(C)c(S(=O)(=O)NCc2ccccn2)c(C)c1,"inconclusive [activator, single point]",
O=C(N/N=C/c1ccccc1F)c1cc2c(ccc3ccccc32)o1,,inactive: -3.59%
COc1cccc(/C=C2\SC(=S)N(CC(=O)N(C)C3CCS(=O)(=O)C3)C2=O)c1 (stereo not drawn),"inconclusive [activator, partial curve, poor fit]",
